Reference: PMC4336329 (PLoS ONE, 2015)
Out of some 310,000 compounds screened, about 14,000 (4.5%) showed an effect of 50% or more. The effect is printed as a negative number. The list shows a part of the results.

The molecules below were run against human ether-à-go-go-related gene (hERG) potassium channel (human, UniProt Q12809) (assay: primary screen, population patch clamp on CHO cells stably expressing hERG).
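Also: peak tail current of the secondary pulse compared with the same well before compound.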

human ether-à-go-go-related gene (hERG) potassium channel, sequence (Q12809 whole entry, looked up): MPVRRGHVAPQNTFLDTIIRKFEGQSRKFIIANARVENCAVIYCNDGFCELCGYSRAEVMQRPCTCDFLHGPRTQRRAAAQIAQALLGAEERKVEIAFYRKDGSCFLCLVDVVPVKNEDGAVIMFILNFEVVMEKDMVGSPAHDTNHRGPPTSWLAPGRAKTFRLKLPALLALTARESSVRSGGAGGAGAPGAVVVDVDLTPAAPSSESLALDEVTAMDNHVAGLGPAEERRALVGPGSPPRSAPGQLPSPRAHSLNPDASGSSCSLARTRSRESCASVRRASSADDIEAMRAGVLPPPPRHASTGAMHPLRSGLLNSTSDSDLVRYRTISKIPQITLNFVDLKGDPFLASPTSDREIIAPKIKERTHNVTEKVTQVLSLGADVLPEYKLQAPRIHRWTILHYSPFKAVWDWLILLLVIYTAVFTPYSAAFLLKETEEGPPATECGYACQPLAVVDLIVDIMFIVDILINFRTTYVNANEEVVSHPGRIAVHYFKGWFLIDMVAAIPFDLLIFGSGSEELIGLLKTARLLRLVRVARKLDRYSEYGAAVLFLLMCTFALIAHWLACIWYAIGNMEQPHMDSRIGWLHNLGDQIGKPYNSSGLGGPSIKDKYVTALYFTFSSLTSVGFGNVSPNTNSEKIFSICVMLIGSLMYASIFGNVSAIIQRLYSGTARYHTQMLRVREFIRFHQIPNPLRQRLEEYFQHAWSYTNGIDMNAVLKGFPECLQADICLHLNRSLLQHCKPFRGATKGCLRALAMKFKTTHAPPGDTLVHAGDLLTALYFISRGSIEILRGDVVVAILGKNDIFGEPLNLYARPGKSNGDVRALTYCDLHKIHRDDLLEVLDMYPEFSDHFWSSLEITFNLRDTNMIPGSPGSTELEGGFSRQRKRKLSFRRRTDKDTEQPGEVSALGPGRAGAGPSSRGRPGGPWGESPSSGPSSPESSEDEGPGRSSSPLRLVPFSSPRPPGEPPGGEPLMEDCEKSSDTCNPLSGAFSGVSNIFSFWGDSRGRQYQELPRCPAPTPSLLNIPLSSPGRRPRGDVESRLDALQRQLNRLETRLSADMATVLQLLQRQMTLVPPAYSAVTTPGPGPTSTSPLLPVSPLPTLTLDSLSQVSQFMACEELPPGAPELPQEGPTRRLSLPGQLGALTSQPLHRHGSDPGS

| Structure (SMILES) | hERG current change (%, negative = inhibition) at 10uM [%] |
| --- | --- |
| COc1ccc(C(CCN)Cc2ccccc2)cc1 (stereo not shown) | -1.36 |
| Cc1cccc2c1CC(C)(C)NC2=C(C#N)C#N | 14.3 |
| Cc1ccc(OCCC(=O)OCc2csc(CC(=O)Nc3ccccc3C)n2)cc1 | 8.22 |
| Cc1ccc(S(=O)(=O)N2CCC(C(=O)OCC(=O)N3CCCC(C)C3)CC2)cc1C (stereo not shown) | -34.3 |
| Cc1ccc(NC(=O)c2ccc3c(c2)S(=O)(=O)c2ccccc2C3=O)cc1S(=O)(=O)N1CCOCC1 | 7.63 |
| Cc1[nH]n(-c2nc(-c3cccc([N+](=O)[O-])c3)cs2)c(=O)c1C | 14.9 |
| O=C(Nc1ccc(Cl)c(Cl)c1)Nc1ccc([N+](=O)[O-])cn1 | 22.8 |
| Cc1ccccc1NC(=S)NC(=O)c1cncc(Br)c1 | 13.2 |
| CC(/C=C/c1ccccc1)=N\NC(=O)c1ccc(Br)cc1 | -4.99 |
| c1ccn2cc(CSc3nnc4ccccn34)nc2c1 | 12.8 |
| COc1cccc(N2CCN(C(=O)c3cc4c(s3)-c3ccccc3OC4)CC2)c1 | -15.3 |
| O=C(NC1=NCCS1)c1cc(-c2ccc(F)cc2)nc2ccccc12 | 7.49 |
| Cc1nn2c(Nc3ccc(F)cc3)c3c(nc2c1-c1ccccc1)CCC3 | 11.9 |
| O=C(Cc1ccccc1)N1CCN(Cc2cccnc2)CC1.O=C(O)C(=O)O | 4.67 |
| CO.Cc1ccc(C2=NCN(c3ccc(C(=O)O)cc3)C(=S)N2)cc1 | 15.8 |
| CCCN(C(=O)CCNC(=O)Cn1cnc2ccccc2c1=O)c1cccc(C)c1 | 11.4 |
| COc1ccc(-c2cc(-c3ccc(OC)c(OC)c3)n[nH]2)c(O)c1 | 2.38 |
| Cc1cc(C)c2nc(/N=C(\N)NC(=O)c3ccccc3)nc(C)c2c1 | 6.93 |
| CC(C)Cn1c(SCC#N)nc2ccccc2c1=O | 6.21 |
| O=C(CCn1ccnc1)Nc1ccc2ccccc2c1 | -2.09 |
| O=C(OCC(=O)N1CCN(C(=O)c2ccco2)CC1)C1=COCCO1 | 38.6 |
| Cc1cccc2sc(NC(=O)CSc3nc4ccccc4o3)nc12 | -9.76 |

| Structure (SMILES) | hERG current change (%, negative = inhibition) at 10uM [%] |
| --- | --- |
| CC1(C)Oc2ccc3ccc(=O)oc3c2C[C@H]1O | 9.21 |
| COc1ccc(Cc2nnc(NC(=O)Nc3ccc(F)cc3)s2)cc1 | 22.7 |
| COC(=O)[C@]12OC[C@]34C([C@@H](O)[C@@H]1O)[C@]1(C)CC(=O)C(O)=C(C)[C@@H]1C[C@H]3OC(=O)[C@H](O)[C@@H]24 (stereo partly shown) | 18 |
| CC(C)C(c1nnnn1C(C)(C)C)N1CCOCC1 (stereo not shown) | 5.37 |
| CCC(=O)c1coc2ccc(O)cc12 | 7.22 |
| COc1ccc(/C(C)=N/Nc2ccc(C(=O)O)cc2)cc1OC.O=S(=O)(O)O | 5.63 |
| Cc1ccc(N2CC(NS(=O)(=O)c3cc(F)ccc3F)CC2=O)cc1C (stereo not shown) | -6.74 |
| O=C(CNC(=O)c1cccs1)c1ccc(Br)cc1 | 12.2 |
| CC(=O)c1c(COC(=O)c2ccccc2Cl)nc2ccccc2[n+]1[O-] | -8.73 |
| CC(=O)Nc1ccc(NC(=O)c2ccc(COc3ccc4c(C)cc(=O)oc4c3)cc2)cc1 | 10.6 |
| C=CCN1C(=O)CS/C1=N\S(=O)(=O)c1ccc(Cl)cc1 | 2.52 |
| COc1ccc(NC(=O)C2CCCN(S(=O)(=O)c3cccs3)C2)cc1OC (stereo not shown) | 1.68 |
| O=C(Nc1cccc2cccnc12)c1cccc(Cl)c1 | 13.8 |
| C[C@H]1CC[C@@]2(C)[C@@H](CC[C@@H]3[C@@H]2CC[C@]2(C)[C@@H](O)CC[C@@H]32)C1 | 2.99 |
| O=C(Nc1cccc(Cl)c1Cl)C1CCN(c2ncccn2)CC1 | 15.3 |
| N#C/C(C(=O)N1CCOCC1)=c1/s/c(=C\c2ccccn2)c(=O)n1-c1ccccc1 | 17.6 |
| COc1ccc(N2CCN(C(=O)CSc3nnc(-c4ccc5[nH]c(C)c(C)c5c4)o3)CC2)cc1 | 9.37 |
| CCOc1ccc(S(=O)(=O)N2CCCCC2)cc1NC(=O)C1CCC1 | 0.496 |
| COc1ccc(-c2nc(CSCC(=O)NCc3ccc4c(c3)OCO4)c(C)o2)cc1 | -6.05 |
| COc1ccc(CCNC(=O)COC(=O)/C=C/c2cc(OC)c(OC)c(OC)c2)cc1OC | 12.8 |
| CCn1cc(/C=N\NC(=O)Cc2ccc(Cl)cc2)cn1 | -12 |
